# Laboratory results: the BET-seq Pho4 binding data (Le et al. 2018)
# The list shows a part of the results. The energies were worked out here from pooled read counts, against the library average; single values are noisy.
# Molecular target: T1, Pho4 (S. cerevisiae) (UniProt P07270)
# T1 sequence: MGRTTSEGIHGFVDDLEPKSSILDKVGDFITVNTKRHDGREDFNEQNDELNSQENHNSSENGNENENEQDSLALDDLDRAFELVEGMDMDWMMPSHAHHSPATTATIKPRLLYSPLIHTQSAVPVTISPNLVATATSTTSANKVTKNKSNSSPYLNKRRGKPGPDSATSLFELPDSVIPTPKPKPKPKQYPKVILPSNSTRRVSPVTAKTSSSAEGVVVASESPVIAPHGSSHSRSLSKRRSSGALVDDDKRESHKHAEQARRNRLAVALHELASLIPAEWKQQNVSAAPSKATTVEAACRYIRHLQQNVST
# Assay: relative binding free energy (BET-seq); higher = weaker binding
# Conditions: reference: library average
row,Sequence,relative binding free energy [kcal/mol]
1,GAAGGCACGTGATGAA,0.15
2,GTCGTCACGTGCGGGT,0.06
3,GGGAGCACGTGAGTGT,0.24
4,GGCAGCACGTGGCGGG,-0.16
5,TGATGCACGTGGATAA,-0.06
6,TAGCTCACGTGGCGGG,0.1
7,GAGGCCACGTGGGATT,-0.01
8,CATGACACGTGTGGGG,0.06
9,GTTTGCACGTGGGTGA,-0.07
10,GGGGTCACGTGCAATA,0.12
11,GGGGCCACGTGTTGCT,-0.04
12,TAAGACACGTGGGAAT,0.18
13,CTGCGCACGTGATGGT,0
14,TAAGGCACGTGGGGAA,-0.08
15,TTGTTCACGTGAATAT,0.34
16,ATCTTCACGTGTTATG,0.24
17,TGTGTCACGTGGTAAG,0.15
18,TGGAGCACGTGTGCGT,-0.11
19,GACGACACGTGGGGTT,-0.14
20,TAGGGCACGTGAAGCA,0.12
21,AAGGACACGTGGTTAA,0.04
22,GTGTACACGTGATACG,0.09
23,GGGGCCACGTGGGATT,-0.13

row,Sequence,relative binding free energy [kcal/mol]
1,ACTAGCACGTGTTTTG,-0.14
2,CATTGCACGTGTGGTC,0.11
3,GGATGCACGTGTGTGA,0.11
4,TGCTGCACGTGAAGTG,0.14
5,GGGCTCACGTGGTGCG,0.28
6,TGCGTCACGTGATAAG,0.19
7,GTTTTCACGTGTGCCT,0.37
8,GGGGGCACGTGCGTAT,-0.09
9,GGGGCCACGTGCTTGG,-0.23
10,ATTTGCACGTGAGTGC,0.22
11,TCGGACACGTGTATTT,0.17
12,GTGTACACGTGGGTTC,-0.05
13,GTGGTCACGTGTGAAG,0.3
14,TTAATCACGTGTTTTC,0.26
15,CGGGTCACGTGTATCT,0.21
16,GGGTCCACGTGTGGGC,0.08
17,ATGTCCACGTGGTTTA,-0.11
18,AGATGCACGTGTTCGG,0.02
19,TAATGCACGTGTTTGT,-0.07
20,GGGATCACGTGCAGTG,0.27
21,GATGCCACGTGGAGAG,0.14
22,TTGGACACGTGGCGAT,0.1
23,GTCTTCACGTGCTGTG,0.1

row,Sequence,relative binding free energy [kcal/mol]
1,ATGGGCACGTGAACTT,0.14
2,TGATGCACGTGGAATT,0.15
3,TTCGGCACGTGTATAT,0
4,AGCTTCACGTGTGTTG,0.14
5,ATGAACACGTGTGTCG,0.17
6,TAGGTCACGTGTAGTA,0.18
7,GTTATCACGTGTCGTG,0.24
8,TGGTTCACGTGAATCT,0.37
9,GATCACACGTGTGTTG,0.23
10,ACGGCCACGTGAGGGG,0.09
11,TGCTGCACGTGGTAGG,0
12,CCTTGCACGTGGGGGG,-0.2
13,GGTGCCACGTGGAGAG,0.13
14,TTTACCACGTGGGTTA,-0.15
15,CATTTCACGTGAGGGA,0.35
16,GCGAGCACGTGGGCAG,-0.17
17,GGAAGCACGTGACGGG,0.05
18,TATTTCACGTGAAGAG,0.38
19,TAGAGCACGTGCGGAT,-0.1
20,AGGGACACGTGTGAGA,0.13
21,TTTAGCACGTGCGTGG,-0.07
22,TCTATCACGTGGGGTC,0.16
23,TGTGGCACGTGCTTTA,-0.16

row,Sequence,relative binding free energy [kcal/mol]
1,AGTTCCACGTGGGTAG,-0.1
2,TAGTTCACGTGGTTTT,0.35
3,CTGAGCACGTGGGAGT,-0.03
4,GAGTACACGTGCGGTG,0
5,TTTATCACGTGGACGG,0.25
6,TACGTCACGTGATGAT,0.26
7,TTCGTCACGTGGACGG,0.12
8,TATTTCACGTGTACGA,0.3
9,TCCGACACGTGGTGTT,0.03
10,AGAGGCACGTGTGGAA,0.02
11,TAGTGCACGTGTTATA,0.02
12,TGTTACACGTGGGTTA,0.08
13,TAAGACACGTGGAGGT,-0.07
14,TATTTCACGTGGTTCT,0.14
15,TTTTTCACGTGCCTTG,0.3
16,TTTTCCACGTGTAGCG,0.18
17,GTATCCACGTGTTTGT,0.06
18,GAGGTCACGTGCTCGG,0.01
19,GTATTCACGTGGTGCA,0.14
20,CTGTGCACGTGAGTTA,0.15
21,AGGTGCACGTGGGGAA,-0.11
22,GTTTTCACGTGAAGCG,0.35
23,TAGCGCACGTGGTGAG,-0.2

row,Sequence,relative binding free energy [kcal/mol]
1,GAAGTCACGTGTTGAT,0.12
2,AGGGCCACGTGAAGGA,0.26
3,TACGACACGTGGGGAG,-0.07
4,TGCTTCACGTGTCTGG,0.26
5,AGCGCCACGTGTGTGT,-0.19
6,GTCTGCACGTGGTAGG,0.03
7,ACTTTCACGTGGTGAT,0.14
8,TATCGCACGTGCTGGG,-0.03
9,TGGTACACGTGACGGA,0.22
10,GTTTGCACGTGGTGTA,-0.02
11,TTAGGCACGTGCATGG,-0.07
12,GGGTGCACGTGATGTG,0.17
13,AGTGTCACGTGGAACT,0.08
14,TAATGCACGTGAGTGC,0.15
15,AAGTTCACGTGAAGTC,0.5
16,GTGATCACGTGTGCGG,0.16
17,ATTTGCACGTGTGAGA,0.21
18,TAGTGCACGTGTGTTC,0
19,TCGGACACGTGTGGAA,0.14
20,GTTTGCACGTGTGCCG,0.08
21,GTTGGCACGTGGAGGC,-0.01
22,AGGGGCACGTGGCACG,-0.2
23,TGGGTCACGTGTGCCT,-0.01
